Screen size: about 94,000 compounds; about 4,000 (4.3%) were called active. This list was built around the results that the source calls inconclusive (neither active nor inactive); the mix of calls is not that of the screen. The call rests on the fitted dose curve; in most records, active means well fitted inhibition curve with a large enough effect; inconclusive means small, poorly fitted or top-dose-only effect; inactive means no such curve, though single readings can be large or run the other way. A potency beside an inconclusive call is a rough fit, not a confirmed value.
Assay: Cytotoxic Profiling in NIH 3T3 Cell Line of Diverse Libraries Using Quantitative High-Throughput Screening; further: nearly all actives have a fitted effect of over 55% in size
Conditions: NIH 3T3 viability, CellTiter-Glo ATP luminescence, 48-72 h; activity change, negative = cytotoxicity: at 96.7 µM (top of the series) unless noted; series mostly up to 96.7 µM
Procedure, shortened: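 Luminescent ATP readout (CellTiter-Glo, 10 min RT) after 48 or 72 hr compound exposure of NIH 3T3 cells seeded at 400 cells/well in 1536-well format; quantitative HTS.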
On the % scale 0 is the no-effect control and ±100 the full control effect; potency means the concentration at half of the fitted maximal effect; tags describe the fitted curve by direction and shape.

Row | SMILES | Potency | activity change, negative = cytotoxicity | outcome
1 | O=C(C1CCN([S+](=O)([O-])c2cccc(C(F)(F)F)c2)CC1)N1CCCC(c2nc3ncccc3[nH]2)C1 (configuration not stated) | inconclusive: 44.7 µM [inhibitor, partial curve, poor fit] |  | 
2 | O=[S+]1([O-])[C@@H](Cc2ccccc2)[C@H](COCc2ccccc2)CN1c1ccccc1 | inconclusive: 28.2 µM [inhibitor, partial curve, poor fit] |  | 
3 | CCOC(=O)[C@H]1C[C@]2(CCCCN(CCOC)C2=O)N(C(=O)COC(C)=O)[C@H]1c1ccccc1 | inconclusive: 70.8 µM [inhibitor, partial curve, poor fit] |  | 
4 | O=C(c1ccc(F)cc1)N1CCC(N2CCCNC2=O)CC1 | inactive |  | 
5 | CN1CCC(OCCCn2cnc3cn(C)nc3c2=O)CC1 |  | inactive: -1.31% | 
6 | COc1cccc(CN2C(=O)OC3(CCN(C(=O)c4scnc4C)CC3)C2(C)c2cccnc2)c1 (configuration not stated) | active: 31.6 µM |  | 
7 | COc1ccc(Nc2nccc3c(=O)cc(-c4ccccn4)oc23)cc1OC | inconclusive: 89.1 µM [inhibitor, partial curve, poor fit] |  | 
8 | COCC(=O)N1CCC(C(=O)NCC2COc3cc(OC)ccc3C2)CC1 (configuration not stated) |  |  | inactive
9 | COc1cccc(CC(=O)NCc2ccc(Cl)s2)c1 | inconclusive: 56.2 µM [inhibitor, partial curve, poor fit] |  | 
10 | CC1=C[C@@H](CNC(=O)Nc2cccc(C#N)c2)[C@H](C(C)C)C[C@H]1CC(=O)NCc1ccccn1 | inconclusive: 70.8 µM [inhibitor, single point] |  | 
11 | CNC(=O)[C@@H]1C[C@@H](n2cc(C(C)(C)NC(=O)c3cccc(Cl)c3)nn2)CN1 | inconclusive: 100 µM [inhibitor, partial curve, poor fit] |  | 
12 | Cc1ccc(NC(=O)N2CCc3c(C(=O)NC(C)C)cccc32)cc1 | inconclusive: 56.2 µM [inhibitor, partial curve, poor fit] |  | 
13 | Cc1noc2c(NCC3CCOCC3)cc(-c3ccc(F)cc3)nc12 | inconclusive: 15.8 µM [inhibitor, full curve, poor fit] |  | 
14 | CN(Cc1cccc(N2CCN(Cc3c(Cl)ccc(Cl)c3Cl)CC2)c1)[S+](C)(=O)[O-] | inconclusive: 44.7 µM [inhibitor, partial curve, poor fit] |  | 
15 | O=C(NCc1cccc(F)c1)c1cnc2c(c1)N(Cc1ccccc1)CCC2 | inconclusive: 89.1 µM [inhibitor, partial curve, poor fit] |  | 
16 | CCNc1nccc(N2CCC(CC(=O)N3CCN(c4ccccc4F)CC3)CC2)n1 | active: 17.8 µM |  | 
17 | Cc1noc2c(NCc3cccnc3)cc(-c3ccc(F)cc3)nc12 | inconclusive: 25.1 µM [inhibitor, full curve, poor fit] |  | 
18 | COc1cccc(C(=O)Nc2ccc3c(c2)CN(Cc2cccc(OC)c2OC)C(=O)C(C)O3)c1 (configuration not stated) | active: 35.5 µM |  | 
19 | N#Cc1ccc(CN2CCC3(CC2)CNC(=O)c2ccccc2O3)cc1 |  | inactive: -35.5% | 
20 | CN(CCC(O)c1ccccc1)C(=O)c1coc(Cn2cnc3ccccc32)n1 (configuration not stated) |  | inactive: -22.6% | 
21 | CN(C)CC(O)COc1ccc(CN2CCN(c3ncc[nH]c3=O)CC2)cc1 (configuration not stated) |  | inactive: 2.04% | 

Row | SMILES | Potency | activity change, negative = cytotoxicity | outcome
22 | COc1ccc2c(c1)C(C(=O)N1CCN(c3ccc4oc(C(=O)O)cc4c3Cl)CC1)=CC(C)(C)O2 | inconclusive: 56.2 µM [inhibitor, partial curve, poor fit] |  | 
23 | CCNC(=O)CN1CCC(=O)N(Cc2ccc(F)cc2)C(C(C)C)C1 (configuration not stated) | inconclusive: 89.1 µM [inhibitor, single point] |  | 
24 | COc1cccc(-c2ccc3ncn(-c4ccc(F)cc4F)c(=O)c3n2)c1 | active: 50.1 µM |  | 
25 | COc1cccc(CNC(=O)Cn2c(-c3ccc(F)cc3)nc(C)cc2=O)c1 | inconclusive: 70.8 µM [inhibitor, single point] |  | 
26 | Fc1ccccc1-c1cc2c(cn1)CN(Cc1ccncc1)CCN2 | inconclusive: 35.5 µM [inhibitor, full curve] |  | 
27 | CC(=O)Nc1ccc(S(=O)(=O)N[C@H]2CO[C@H]3[C@@H]2OC[C@@H]3n2nnnc2Oc2ccc(-n3ccnc3)cc2)cc1 |  | inactive: 2.64% | 
28 | O=C(Nc1nn(CC(F)(F)F)c2cccc(Oc3cccnc3)c12)c1cocn1 |  | inactive: -28.9% | 
29 | CC(C)NC(=O)N1CCC2(CC1)CC(c1cccc(C(F)(F)F)c1)=NO2 |  | inactive: -11% | 
30 | CN(C)C(=O)c1cccnc1OC1CCN(CCc2ccccc2)CC1 |  | inactive: -4.92% | 
31 | O=C(CC1CCCN(c2cnn(CC3CC3)c(=O)c2)C1)NCc1ccccc1 (configuration not stated) | active: 35.5 µM |  | 
32 | Cc1nc(-c2ccccc2)n(Cc2ccc(F)cc2Cl)c(=O)c1CCO | active: 44.7 µM |  | 
33 | O=C(Cc1ccccc1F)N1CCC(CCOc2ccccc2)C1 (configuration not stated) | inconclusive: 44.7 µM [inhibitor, partial curve, poor fit] |  | 
34 | O=C(Cn1cccc1-c1nc(-c2ccc3c(c2)OCO3)no1)NCc1ccc(Cl)cc1 | inconclusive: 56.2 µM [inhibitor, single point] |  | 
35 | CC(C)CNc1ccc2c(n1)C(C)(C(=O)NC1COC1)CN(Cc1ccccc1)C2 (configuration not stated) | inconclusive: 22.4 µM [inhibitor, full curve, poor fit] |  | 
36 | O=C(c1ccc(Cl)cc1)N1CC2(CCCN2Cc2ccc(Cl)cc2)Cc2ccccc21 (configuration not stated) | inconclusive: 50.1 µM [inhibitor, partial curve, poor fit] |  | 
37 | COc1cccc(Cn2c(Cc3c[nH]c4ccccc34)n[nH]c2=O)c1 | inconclusive: 50.1 µM [inhibitor, partial curve, poor fit] |  | 
38 | CCc1ccc(C(=O)N2CCC(N3C(=O)CCC3C(=O)NCc3ccccc3)CC2)cc1 (configuration not stated) |  | inactive: -19.1% | 
39 | COC(=O)[C@@H]1Cc2ncn(Cc3ccc(OC)cc3)c2CN1Cc1cccc(C#N)c1 | inconclusive: 100 µM [inhibitor, partial curve] |  | 
40 | COc1nc2nc(CC3CC3)n(C)c2cc1-c1ccc(O)c(F)c1 | inconclusive: 56.2 µM [inhibitor, partial curve, poor fit] |  | 
41 | O=C(c1cccc(Cl)c1)N1CCC(c2n[nH]c(=O)n2-c2ccccc2)CC1 | inconclusive: 35.5 µM [inhibitor, partial curve, poor fit] |  | 
42 | Cc1nnc2ccc(N3CCC(NC(=O)c4ccccc4F)C3)nn12 (configuration not stated) | inconclusive: 50.1 µM [inhibitor, partial curve, poor fit] |  | 

Row | SMILES | Potency | activity change, negative = cytotoxicity | outcome
43 | Cn1ccc(NC(=O)c2cc(-c3ccccc3F)cc3c2OCCN3Cc2cccnc2)n1 | inconclusive: 56.2 µM [inhibitor, partial curve, poor fit] |  | 
44 | Cn1ncc2c(C(=O)NCc3cccc(Cl)c3)cc(-c3ccc(C(F)(F)F)cc3)nc21 | inconclusive: 50.1 µM [inhibitor, partial curve, poor fit] |  | 
45 | Cc1noc(C)c1S(=O)(=O)N1CCC[C@H](n2c(=O)n(C)c3cccnc32)C1 |  | inactive: -20.6% | 
46 | CCc1ccc(S(=O)(=O)N2CCC(n3cnnc3C3CC3)CC2)cc1 | inconclusive: 39.8 µM [inhibitor, partial curve, poor fit] |  | 
47 | O=[S+]1([O-])c2cccnc2OC(Cn2cccc2)CN1CCc1ccccc1 (configuration not stated) | inconclusive: 17.8 µM [inhibitor, partial curve, poor fit] |  | 
48 | CCCCOCCCNC(=O)c1c(C)noc1-c1ccc(OC(F)(F)F)cc1 | inconclusive: 50.1 µM [inhibitor, partial curve, poor fit] |  | 
49 | COc1cc2c(cc1-c1ccc(F)cc1)OCC(C)(C)CC2CO (configuration not stated) | inconclusive: 50.1 µM [inhibitor, partial curve, poor fit] |  | 
50 | O[C@H]1[C@H](NCc2ccc(OC(F)(F)F)cc2)[C@H]2CO[C@H](O2)[C@@H]1N1CCOCC1 |  |  | inactive [at 174 µM]
51 | CC1(c2ccccc2)N(Cc2ccccc2C#N)C(=O)OC12CCN(C(=O)Cc1ccccn1)CC2 (configuration not stated) | active: 28.2 µM |  | 
52 | CC1CCC2(CC1)OCC(C(=O)NCc1ccccc1F)N2C(=O)c1ccc(F)cc1 (configuration not stated) |  | inactive: -23.6% | 
53 | CCc1ccc(NC(=O)Cn2c(N3CCCCC3)nc(C)c(C)c2=O)cc1 | inconclusive: 44.7 µM [inhibitor, partial curve, poor fit] |  | 
54 | COC(=O)N1CCCC(C(=O)N2CCC(c3nc4ncccc4[nH]3)C2)C1 (configuration not stated) |  | inactive: -6.32% | 
55 | Cc1ccc(S(=O)(=O)Cc2noc([C@@H]3C[C@@H](O)CN3Cc3cccc(OC(F)(F)F)c3)n2)cc1 | inconclusive: 70.8 µM [inhibitor, single point] |  | 
56 | O=[S+]1([O-])NCC2(CCN(Cc3ccc(F)cc3)CC2)Nc2ccccc21 | inconclusive: 50.1 µM [inhibitor, partial curve, poor fit] |  | 
57 | O=C(CC(c1cccc2c1OCO2)c1c[nH]c2ccccc12)NCc1ccccc1 (configuration not stated) | inconclusive: 44.7 µM [inhibitor, partial curve, poor fit] |  | 
58 | COC(=O)C1=C(C)N=C2SC=C(CC(=O)NC3CCCCC3)N2C1c1ccsc1 (configuration not stated) | inconclusive: 70.8 µM [inhibitor, partial curve, poor fit] |  | 
59 | O=C(NCCCc1ccccc1)C1CCCN1c1nccc(Nc2ccccc2F)n1 (configuration not stated) | inconclusive: 50.1 µM [inhibitor, partial curve, poor fit] |  | 
60 | COc1ccc(Cl)cc1NC(=O)Cn1c(N2CCOCC2)nc(C)cc1=O | inconclusive: 44.7 µM [inhibitor, partial curve, poor fit] |  | 
61 | O=C(C1CCCN1[S+](=O)([O-])c1cccc(C(F)(F)F)c1)N1CCC(c2nc3ccncc3[nH]2)CC1 (configuration not stated) | inconclusive: 50.1 µM [inhibitor, partial curve, poor fit] |  | 
62 | Cc1ccc(C(=O)N2CCC3(CC2)COc2ccccc2C(=O)N3)cc1 |  | inactive: -11.7% | 
